From PubChem BioAssay AID1347428 (National Center for Advancing Translational Sciences (NCATS), 2020)
Out of some 91,000 compounds screened, about 290 (0.32%) were called active. The shares of active, inactive and inconclusive entries below differ from those in the screen. Calls follow the shape of the dose curve; as a rule, active = well fitted inhibition curve with a large enough effect; inconclusive = small, poorly fitted or top-dose-only effect; inactive = no such curve, though single readings can be large or run the other way. Where the call is inconclusive, the potency comes from a doubtful curve fit.

biological target: Single-stranded DNA cytosine deaminase (Homo sapiens) (UniProt Q9GZX7); test: Primary qHTS assay for inhibitors of Activation Induced Cytidine Deaminase (AID): AID signal; details: AID deamination FRET fluorescence, UDG-coupled, 4 h; series mostly up to 115 µM; also: nearly all actives have a fitted effect of over 25% in size
Chain of UniProt Q9GZX7 (Q9GZX7 whole entry, looked up): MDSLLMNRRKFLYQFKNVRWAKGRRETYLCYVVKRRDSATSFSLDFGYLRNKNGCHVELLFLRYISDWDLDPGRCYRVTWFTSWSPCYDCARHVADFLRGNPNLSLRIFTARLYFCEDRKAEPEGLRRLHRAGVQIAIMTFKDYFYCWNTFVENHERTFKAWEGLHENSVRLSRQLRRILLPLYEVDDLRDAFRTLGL
Potency is read from the fitted curve at half-maximal effect; tags tell the direction and shape of the fitted curve.

SMILES | Potency
COc1ccc(N(Cc2cccs2)C(=O)COc2ccc([N+](=O)[O-])cc2)cc1 | inconclusive: 15.8 µM [inhibitor, partial curve, poor fit]
Cc1ccc(CNC(=O)c2cnn3c(C)c(Cc4c(F)cccc4Cl)c(C)nc23)cc1 | inconclusive: 39.8 µM [inhibitor, partial curve, poor fit]
CCN(c1ccccc1)S(=O)(=O)c1nnc(NC(=O)C(C)Oc2ccccc2)s1 (stereo unspecified) | inconclusive: 50.1 µM [inhibitor, partial curve, poor fit]
Cc1ccccc1CN1C(=O)c2ccccc2S(=O)c2ccc(C(=O)NCc3ccccc3)cc21 (stereo unspecified) | inconclusive: 22.4 µM [inhibitor, full curve, poor fit]
Cc1ccc(-n2c(SCc3nc(-c4ccc(Cl)cc4)no3)nnc2-c2ccncc2)cc1 | active: 35.5 µM
CC(=O)N1c2ccccc2CC1C(=O)N1CCN(c2cccc(C)c2C)CC1 (stereo unspecified) | inconclusive: 89.1 µM [inhibitor, single point]
COc1ccc(NC(=O)CC2Nc3cccc4cccc(c34)NC2=O)cc1 (stereo unspecified) | inconclusive: 79.4 µM [inhibitor, single point]
COc1ccc(NC(=O)c2ccco2)cc1NC(=O)C(C)Oc1ccc(Cl)cc1Cl (stereo unspecified) | inconclusive: 89.1 µM [inhibitor, single point]
CCn1c2ccccc2c2cc(CNCC3CCNCC3)ccc21 | inconclusive: 35.5 µM [inhibitor, full curve]
O=S(=O)(c1ccc(Br)cc1)c1nc(-c2ccco2)oc1SCc1ccccc1F | inconclusive: 63.1 µM [inhibitor, single point]
CCCCC1CCC(C(=O)Nc2ccc(OC)c3ncccc23)CC1 (stereo unspecified) | inactive
COc1ccc(-n2cc(-c3ccccc3)c3c(NCc4cccc(Cl)c4)ncnc32)cc1 | inconclusive: 39.8 µM [inhibitor, partial curve, poor fit]
CCCCn1c(SCC(=O)Nc2cccc(OC)c2)nc2ccsc2c1=O | inconclusive: 22.4 µM [inhibitor, full curve, poor fit]
CN(C)C(=O)/C=C/c1ccc(-c2ccccc2F)o1 | inactive
N#Cc1cccc(NS(N)(=O)=O)c1 | inactive
CCN(CC)CCOC(=O)c1ccc(NC(=O)CSc2cc(=O)n(CC)c3ccccc23)cc1 | inconclusive: 50.1 µM [inhibitor, partial curve, poor fit]
COc1cc(NC(=O)c2cc3ccccc3o2)ccc1NC(=O)c1ccccc1Cl | inactive
COc1cccc(NC(=O)CSc2nc3c([nH]c4ccccc43)c(=O)n2-c2cccc(Cl)c2)c1 | inactive
COc1ccccc1N=c1scc(-c2ccc(S(=O)(=O)N3CCCC3)cc2)n1C | inconclusive: 17.8 µM [inhibitor, full curve, poor fit]
Cc1ccccc1Cn1c(SCc2ccc(C(=O)NC3CCCC3)cc2)nc2ccncc21 | inconclusive: 56.2 µM [inhibitor, partial curve, poor fit]
CCOC(=O)c1cc(-c2ccccc2)n(-c2cccc(C(=O)N(C)c3ccc(C)cc3)c2)c1C | inconclusive: 11.2 µM [inhibitor, full curve, poor fit]

SMILES | Potency
CCOc1ccccc1CNC(=O)c1ccc(Cn2c(SCc3ccccc3)nc3cccnc32)cc1 | inconclusive: 20 µM [inhibitor, full curve, poor fit]
CCOC(=O)N1CCc2c(sc3c2c(=O)n(Cc2ccccc2)c(=O)n3Cc2ccc(C)cc2)C1 | inconclusive: 79.4 µM [inhibitor, partial curve, poor fit]
COc1ccc(C(=O)Nc2ccccc2-c2nc3ccccc3s2)c(OC)c1 | inconclusive: 22.4 µM [inhibitor, partial curve, poor fit]
COc1ccc(Nc2cc(C(=O)NCCCN(C)Cc3ccccc3)c3ccccc3n2)cc1 | inactive
Cc1nc2nc(SCC(=O)N(Cc3ccccc3)C(C)C)nn2c(C)c1Cc1ccccc1Cl | active: 22.4 µM
CCCCSc1nc2c(c(=O)n(C)c(=O)n2C)n1Cc1ccc(Br)cc1 | inactive
Cc1ccc(NS(=O)(=O)c2cc([N+](=O)[O-])ccc2N/N=C/c2ccccc2)c(C)c1 | inactive
Cc1cccc(Cn2c(=O)n(CC3CCC(C(=O)N4CCC(C)CC4)CC3)c(=O)c3sccc32)c1 (stereo unspecified) | inconclusive: 79.4 µM [inhibitor, single point]
Cc1ccc(-n2cnc3cc(C(=O)NCc4ccccc4Cl)ccc32)c(C)c1 | inconclusive: 50.1 µM [inhibitor, partial curve, poor fit]
CC(NC(=O)C1CCCC1)c1ccc(C(F)(F)F)cc1 (stereo unspecified) | inactive
COc1ccc(CC(=O)NCc2ccc3c(c2)CCN3C(=O)c2cccc(C)c2)cc1 | inconclusive: 20 µM [inhibitor, full curve, poor fit]
Cc1ccc(NC(=O)CSc2nc(=O)cc(N)n2CCc2ccccc2)cc1 | inconclusive: 7.08 µM [inhibitor, full curve, poor fit]
CCCCOc1ccc(Cn2c(=O)sc3ccccc32)cc1 | inconclusive: 25.1 µM [inhibitor, partial curve]
CCn1c2ccccc2c2cc(CNCCc3c[nH]c4ccccc34)ccc21 | inactive
O=C(CSc1c2c(nc3cc(Cl)ccc13)CCCC2)NCc1ccccc1Cl | inconclusive: 44.7 µM [inhibitor, partial curve, poor fit]
CCc1ccc2c(c1)NC(c1ccc(OC)cc1)=NC(c1ccncc1)=N2 | inconclusive: 100 µM [inhibitor, single point]
Cc1ccc(Cl)cc1NC(=O)CN1C(=O)C(C)(C)c2cc(S(=O)(=O)N3CCCCC3)ccc21 | inconclusive: 35.5 µM [inhibitor, partial curve, poor fit]
CN(C(=O)CCc1nc2ccccc2c(=O)[nH]1)C1CCCC1 | inactive
Cc1cc(=O)n(CC(=O)N2CCN(c3ccc(F)cc3)CC2)c2c1c(C)nn2C | inactive
NC(=O)C1CCN(Cc2ccc(C(F)(F)F)cc2)CC1 | inactive
